# In US8012963B2, “3,4-dihydro-2H-benzo[1,4]oxazine and thiazine derivatives as CETP inhibitors” (Janssen Pharmaceutica N.V., priority 2006, dated 2011):
# Target: T1, CETP (Homo sapiens, UniProt P11597)
# T1 construct: from tissue; host or cells: human plasma from normal volunteers
# T1 sequence (P11597 18-493): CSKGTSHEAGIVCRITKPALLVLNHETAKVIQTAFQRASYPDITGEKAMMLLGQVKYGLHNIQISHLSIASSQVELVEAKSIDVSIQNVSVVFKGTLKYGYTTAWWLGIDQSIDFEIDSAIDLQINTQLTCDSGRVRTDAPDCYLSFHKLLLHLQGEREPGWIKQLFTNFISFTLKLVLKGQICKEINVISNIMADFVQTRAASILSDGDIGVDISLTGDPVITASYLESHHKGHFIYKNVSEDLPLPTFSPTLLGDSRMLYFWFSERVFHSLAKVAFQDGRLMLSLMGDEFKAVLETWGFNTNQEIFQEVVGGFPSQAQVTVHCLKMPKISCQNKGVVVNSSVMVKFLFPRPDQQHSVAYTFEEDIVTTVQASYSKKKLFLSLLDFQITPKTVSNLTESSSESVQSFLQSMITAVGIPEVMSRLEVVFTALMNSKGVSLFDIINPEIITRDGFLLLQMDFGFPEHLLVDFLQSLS
# Experiment: CETP in vitro assay ([3H]CE-HDL transfer, Amersham kit TRKQ7005; modified protocol in human plasma)
# Type: biochemical
# Settings: multiple values = multiple measurements
# Procedure: The CETP inhibitory activity of the compounds was determined using a commercially available kit from Amersham Biosciences (Catalog #TRKQ7005).
# For the measurement of inhibitory activity in human plasma, a modified protocol (Connolly, D. T. et al., Biochemistry, 39 13870-13879, 2000) was used. Briefly, 80 μl of human plasma (obtained from normal volunteers), approximately 25 μg/ml (200) of [^3H]CE-HDL (Amersham Biosciences from kit TRKQ7005) and 1 μl of compound dissolved in DMSO was incubated for at least 4 hrs at 37° C. and non-specific transfer was determined by incubating a corresponding plate at 4° C. (blank). After the incubation period, 100 of a solution of 1% Dextralip 50/0.5M MgCl2, pH 7.4 was added, vortexed and incubated at room temperature for 10 min. The plate was then centrifuged for 30 min at 10° C. at 3000 rpm in a Sorvall RT6000B centrifuge. Fifty microliters of the supernatant was transferred to a Picoplate (Packard) containing 100 μl of Microscint 40 (Perkin Elmer) and mixed for 30 min using a plate mixer. The radioactivity was counted using a TopCount (Perkin Elmer) and the % control was determined in the samples using the following formula: % transfer relative to vehicle controls (% control)=[cpm blank-cpm test]/cpm blank/cpm control]×100. IC50s were calculated from plots of the % control versus compound concentration. […]
structure (smiles),measurement,value
"OC(CN1c2cccc(-c3cccc(F)c3)c2OCC1c1cccc(OC(F)(F)C(F)F)c1)C(F)(F)F (single isomer, unassigned) [Compound 66, 1,1,1-Trifluoro-3-{8-(3-fluoro-phenyl)-3-[3-(1,1,2,2-tetrafluoro-ethoxy)-phenyl]-2,3-dihydro-benzo[1,4]oxazin-4-yl}-propan-2-ol]",IC50,1 nM and 322 nM [one cell]

# Certain results were filed several times, with different values. This list holds those alone. The source may hold further records. Results that share an entry seem to repeat one measurement on other runs, samples or individuals.
